Source: PubChem BioAssay AID686979 (National Center for Advancing Translational Sciences (NCATS), 2013)
The campaign covered roughly 420,000 compounds. About 50,000 (12%) were called active. This list was built around the results that the source calls inconclusive (neither active nor inactive); the mix of calls is not that of the screen. Calls come from the whole dose curve; as a rule, active = well fitted inhibition curve with a large enough effect; inconclusive = small, poorly fitted or top-dose-only effect; inactive = flat fitted curve, though single readings scatter. No potency is given beside an inconclusive call; the fits are too rough.

assay: qHTS for Inhibitors of human tyrosyl-DNA phosphodiesterase 1 (TDP1): qHTS in cells in presence of CPT; details: chicken DT40 Tdp1-/-;hTDP1 cells + 20 nM CPT, ATP luminescence, 48 h; activity change, negative = growth inhibition: at 46.2 µM (top of the series) unless noted; note: nearly all actives have a fitted effect of over 55% in size
Summary of the method: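 Chicken DT40 Tdp1-/- cells complemented with human TDP1, 400 cells/well, exposed to compounds plus 20 nM camptothecin for at least 48 h at 37 C; viability read as ATP content by CellTiter-Glo luminescence.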
% is set by controls: 0 for no effect and ±100 for the full control effect; potency is the fitted concentration of half-maximal effect; tags give direction and shape of the fitted curve.

Row | SMILES | Potency | activity change, negative = growth inhibition
1 | CCCn1c(=S)[nH]c2cc(C(=O)N3CCN(C4CCCCC4)CC3)ccc2c1=O | inconclusive [inhibitor, single point] | 
2 | CCOC(=O)[C@]12CCC=C1N(Cc1ccc3c(c1)OCO3)C(=O)[C@H](CC(=O)NCc1cccs1)C2 | inconclusive [inhibitor, single point] | 
3 | CC1C/C(=C/c2ccncc2)C(=O)/C(=C/c2ccncc2)C1 (stereo unspecified) | active: 0.651 µM | 
4 | COc1ccc(S(=O)(=O)N(C)C)cc1NCC(=O)Nc1ccc(Br)cc1F | active: 13 µM | 
5 | CSc1cccc(NC(=O)C2CCN(C(=O)c3ccccc3C)CC2)c1 | active: 18.4 µM | 
6 | Cc1cc(C(=O)NNC(=O)c2ccc(F)cc2)c(C)s1 |  | inactive: -6.19%
7 | O=C(NC1CCCCC1)c1c(O)nc2sccn2c1=O | inconclusive [inhibitor, single point] | 
8 | CCOC(=O)N1CCC(NC(=O)c2ccc3c(c2)N(Cc2ccc(F)cc2)C(=O)c2ccccc2S3(=O)=O)CC1 | inconclusive [inhibitor, single point] | 
9 | CCCCc1ccc(NC(=O)CSC2=NN3CCCC(=O)N=C3S2)cc1 | inconclusive [inhibitor, single point] | 
10 | COc1cc(/C=C(/C#N)c2ccc(F)cc2)ccc1Oc1ccc([N+](=O)[O-])cn1 | active: 2.91 µM | 
11 | Cc1cc(N2CCCC2)ccc1/C=C1/C(=O)N(C)C(=S)N1C | active: 9.2 µM | 
12 | COc1ccc(NC(=S)c2ccncc2)cc1 |  | inactive: -23.5%
13 | COc1ccc(C(CNC(=O)c2cccc(S(=O)(=O)Nc3ccc(C)cc3)c2)N2CCCCC2)cc1 (stereo unspecified) | inconclusive [inhibitor, single point] | 
14 | CC1(C)CC(=O)C=C(c2ccc(-c3cnc4ccccc4c3)cc2)C1=O | inconclusive [inhibitor, single point] | 
15 | Nc1nc2n(n1)C(c1ccco1)CC(c1ccc(Cl)cc1)N2 (stereo unspecified) |  | inactive: -17.5%
16 | O=S(=O)(c1cccc(-c2nnc(SCc3ccc(Cl)cc3)o2)c1)N1CCCCC1 | active: 8.2 µM | 
17 | O=S(=O)(Nc1ccc(N=Nc2ccc(O)c3ccccc23)cc1)c1ccccc1 | inconclusive [inhibitor, single point] | 
18 | CN1CCN(CC(O)COc2ccc(Cl)cc2)CC1 (stereo unspecified) |  | inactive: 2.29%
19 | COc1ccc(NC(=O)CN2CCN(CC(=O)Nc3ccc(OC)cc3)CC2)cc1 |  | inactive: -13.1%
20 | N#Cc1nc(Cc2cccc3ccccc23)oc1N1CCCCC1 | inconclusive [inhibitor, single point] | 
21 | CC(=O)Oc1ccc(OC(C)=O)c(SCCCCCCl)c1 | active: 2.06 µM | 
